# Results: PubChem BioAssay AID488969 (Vanderbilt High Throughput Screening Facility, 2010)
# Over roughly 110,000 compounds, “z-score” has its median near -0.1; the highest 2% begin near 2. The list shows a part of the results.
# Target: Metabotropic glutamate receptor 8 (Rattus norvegicus) (UniProt P70579)
# Assay: rat mGluR8 modulators via GIRK flux, primary screen, cell-based, thallium flux, HTS (AID 488969)
# Conditions: HEK293 rat mGluR8, GIRK (G protein-gated inwardly rectifying potassium channel) thallium flux, FluoZin2; at 10 µM; stronger effect = higher value; submaximal glutamate (EC20) added with thallium
# Chain of UniProt P70579 (P70579 whole entry, looked up): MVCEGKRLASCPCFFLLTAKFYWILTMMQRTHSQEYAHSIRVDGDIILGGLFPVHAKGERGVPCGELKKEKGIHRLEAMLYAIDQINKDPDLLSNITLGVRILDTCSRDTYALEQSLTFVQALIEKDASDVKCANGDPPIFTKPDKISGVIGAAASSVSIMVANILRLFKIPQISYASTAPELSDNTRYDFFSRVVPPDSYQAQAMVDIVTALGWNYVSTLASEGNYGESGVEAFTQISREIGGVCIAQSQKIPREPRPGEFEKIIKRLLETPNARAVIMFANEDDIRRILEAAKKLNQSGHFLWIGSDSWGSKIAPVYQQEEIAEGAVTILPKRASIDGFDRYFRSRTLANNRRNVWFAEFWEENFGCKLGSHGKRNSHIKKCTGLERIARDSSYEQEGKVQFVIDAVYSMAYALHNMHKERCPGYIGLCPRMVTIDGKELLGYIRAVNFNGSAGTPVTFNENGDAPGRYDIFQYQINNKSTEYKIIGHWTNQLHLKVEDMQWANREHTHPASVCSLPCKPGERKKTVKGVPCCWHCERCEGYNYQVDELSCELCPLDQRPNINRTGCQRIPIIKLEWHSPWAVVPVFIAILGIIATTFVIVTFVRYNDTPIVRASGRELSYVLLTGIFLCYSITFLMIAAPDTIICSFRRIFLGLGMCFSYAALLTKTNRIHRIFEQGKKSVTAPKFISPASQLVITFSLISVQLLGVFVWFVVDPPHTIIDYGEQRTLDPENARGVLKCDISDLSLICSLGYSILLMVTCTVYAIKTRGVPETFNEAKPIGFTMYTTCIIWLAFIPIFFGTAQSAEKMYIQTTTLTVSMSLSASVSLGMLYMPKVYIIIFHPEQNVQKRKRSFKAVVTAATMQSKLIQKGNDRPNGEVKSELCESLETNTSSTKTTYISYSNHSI
row,SMILES,z-score
1,N#C/C(=C/c1ccc(Sc2nc3ccccc3[nH]2)o1)c1cccc(Br)c1,-0.0515
2,CCc1nnc(-n2nc(C)cc2-c2ccccc2)n1N,0.0616
3,CC1(C)C(C=C(Cl)Cl)C1C(=O)N(Cc1cccc(Cl)c1)C1CCS(=O)(=O)C1 (centres undefined),-0.0797
4,N#Cc1cc(C(=O)c2ccccc2OCC(=O)Nc2ccccc2Cl)cn(C2CCCCC2)c1=O,-0.433
5,CCn1c(C)cc2c(c1=O)C(c1ccc3c(c1)OCO3)C(C#N)=C(N)O2 (centres undefined),-0.0565
6,CCOC(=O)N1CCC(N2CCN(S(=O)(=O)c3ccc(NC(C)=O)cc3)CC2)CC1,0.0347
7,CC1=CC(C)C2COC(c3ccc[n+](C)c3)C1C2C (centres undefined),0.134
8,COc1ccc(N2C(=O)c3ccc(NC(C)=O)cc3C2=O)cc1,-0.144
9,COc1ccc(NC(=S)NNC(=O)COc2ccc(Cl)cc2Cl)cc1,2.95
10,CC(C)O/C(=N\S(=O)(=O)c1ccc(Cl)cc1)c1ccccc1,0.0356
11,Cc1[nH]c2ccccc2c1C(=O)COC(=O)Cn1c(C(F)(F)F)nc2ccccc21,-0.292
12,Cc1cccc(NC(=O)c2ccc(Cn3cc(C(F)(F)F)ccc3=O)cc2)c1,-0.228
13,CC(=O)Oc1ccc(C(=O)Cc2ccc3ccccc3n2)c(O)c1C,-0.4
14,CCCn1c(C)cc(C(=O)CN2C(=O)c3cccc(N)c3C2=O)c1C,-0.305
15,Cc1c(C(=O)OC2CCCCC2)[nH]c2c1C(=O)CC(C)(C)C2,-0.811
16,CC(=O)Nc1ccc(N(C)S(C)(=O)=O)cc1,-0.158
17,CCc1c(C)sc(NC(=O)CSc2nc3c(c(C(F)(F)F)n2)CCc2ccccc2-3)c1C#N,-0.14
18,CCC(=O)N1CCN(c2ccc(NC(=O)c3cccs3)cc2)CC1,-0.0578
19,CC1(C)CC(CCNC(=O)c2ccco2)CC(C)(C)N1,-0.0338
20,Cc1cc(C(=O)NC2=NCCS2)cs1,0.654
21,CC(=O)Nc1ccc(C(=O)OCC(=O)c2cccc([N+](=O)[O-])c2)cc1,-0.304
22,Cc1nc2ccccn2c1C(=O)N/N=C/c1ccc2c(c1)OCO2,0.65

row,SMILES,z-score
1,CC(=O)Oc1oc(-c2ccccc2)nc1C=Nc1ccccc1,-1.82
2,CCC(=O)N1CCN(c2ccc(NC(=O)c3cc4ccccc4o3)cc2Cl)CC1,-0.0929
3,CCc1ccc(NC(=O)CCn2cccc2)cc1,-0.0565
4,COC(=O)Nc1nnc(-c2ccncc2)s1,0.038
5,O=C(CSCc1ccc(F)cc1)Nc1ccccc1C(=O)N1CCOCC1,-0.0357
6,CC1CCC(C(C)C)C(OC(=O)CSc2nccc(=O)[nH]2)C1 (centres undefined),-0.0251
7,COc1ccc(OC)c(C(c2nnnn2CCc2ccccc2)N2CCN(c3ccccc3)CC2)c1 (centres undefined),-0.183
8,Cc1cc(NC(=O)CSc2nc(C3CCCCC3)nc3ccccc23)no1,0.0268
9,C#CC[N+](C)(C)C(C#Cc1ccccc1)CC=C (centres undefined),-0.0714
10,Cc1cc(OCc2nn[nH]n2)c2c(C)c(Cc3ccccc3)c(=O)oc2c1,-0.914
11,Cc1ccc(C(=O)Nc2ccccc2C(=O)NC(CC(=O)O)C(=O)O)cc1 (centres undefined),-0.0295
12,Cc1noc(NS(=O)(=O)c2ccc(NC(=O)CSc3ncccn3)cc2)c1C,0.774
13,COc1ccc(/C(O)=C2/C(=O)C(=O)N(CCN3CCOCC3)C2c2ccccn2)cc1OC (centres undefined),0.0595
14,O=C(/C=C/c1ccccc1Cl)NCc1ccco1,-0.133
15,C=CCn1c(C)cc(C(=O)COc2ccc(C)nc2[N+](=O)[O-])c1C,-0.251
16,COc1cc(C(=S)N2CCOCC2)cc(OC)c1OC(=O)c1cc([N+](=O)[O-])cc([N+](=O)[O-])c1,0.243
17,CCOC(=O)CCCNC(=O)COC(=O)[C@@H]1CCCN1S(=O)(=O)c1ccc(Cl)cc1,-0.353
18,Cc1nc(N)sc1N=Nc1ccc(F)cc1,-0.0101
19,COC(=O)c1sc(NC(=O)COc2ccc(OC)cc2)nc1C,0.335
20,COC(=O)c1ccc(NC(=O)CSCc2ccccc2C)cc1,0.192
21,CCn1c(SCC(=O)NCCc2ccc(OC)c(OC)c2)nc2c1c(=O)n(C)c(=O)n2C,0.665
22,CCOc1ccccc1NC(=O)/C=C/c1ccccc1[N+](=O)[O-],1.17

row,SMILES,z-score
1,O=C(NCc1ccco1)C1CCN(S(=O)(=O)Cc2ccccc2)CC1,-0.283
2,CCOC(=O)C1CCN(Cc2oc(CO)cc(=O)c2O)CC1,-0.277
3,COc1ccc(C2(CNC(C)=O)CCOCC2)cc1OC,0.1
4,COc1ccc(OCC(=O)N2CCN(C(=O)c3cccs3)CC2)cc1,-2.73
5,COCCCNC(=O)c1cc2c(-c3ccc(Cl)cc3)nn(C)c2s1,-0.424
6,CCOC(=O)NCc1ccc2c(c1)OCO2,0.481
7,CCCc1ccc(S(=O)(=O)NCCc2ccncc2)cc1,0.535
8,Nc1nc(CN2CCN(Cc3ccccc3)CC2)nc(Nc2ccccc2)n1,0.26
9,Cc1nc(SCC(=O)NC(=O)NCCC(C)C)c2c(-c3cccs3)csc2n1,-0.109
10,Cc1nn(-c2ccccc2Cl)c(Cl)c1/C=N/Nc1cccc(C(=O)O)c1,-0.807
11,CCC(=O)Nc1cccc(C(=O)/C=C/c2ccccc2)c1,0.248
12,CCOP(=O)(c1ccccc1)C(O)c1ccc(F)cc1 (centres undefined),-0.11
13,CCn1c(SCC(=O)Nc2cc(C)on2)nc2sc3c(c2c1=O)CCCC3,-0.225
14,O=C(NN1C(=O)/C(=C\c2cccnc2)SC1=S)C(c1ccccc1)c1ccccc1,-0.22
15,CSc1nc(-c2ccccc2)c(-c2ccccc2)[nH]1,-0.111
16,CCCNc1cc(C)c(C#N)c2nc3ccccc3n12,-1.34
17,COc1ccc(/C=C2/C(=O)N=C(N)N2C)cc1OC,-0.0391
18,O=C(NCCCn1ccnc1)NC(C(F)(F)F)C(F)(F)F,0.00784
19,O=C(Nc1ccc(C(F)(F)F)cc1Cl)c1ccc(Cn2cc(Br)cn2)o1,-0.45
20,CN(CC(=O)N1CCCCCC1)S(=O)(=O)c1cccc2cccnc12,-0.119
21,CCOc1ccc(-c2nnc3sc(-c4c(OC)cccc4OC)nn23)cc1,0.036
22,COc1ccc(NC(=O)CSc2nc(N3CCCCC3)nc(N3CCCCC3)n2)cc1,0.216

row,SMILES,z-score
1,COc1ccc(-c2ncccc2OC(=O)C23CC4CC(CC(C4)C2)C3)cc1,1.48
2,O=C(CC1S/C(=N\S(=O)(=O)c2ccc(F)cc2)N(c2ccccc2)C1=O)Nc1ccccc1 (centres undefined),1.02
3,CCn1c(SCC(=O)N/N=C/C=C/c2ccco2)nc2ccccc21,-0.136
4,Cc1cc(C)n(-c2ccc(C(=O)O)cc2)n1,-0.00992
5,COc1ccc(C2NC(C(=O)O)Cc3c2[nH]c2ccccc32)cc1OC (centres undefined),-0.175
6,COc1cc(-c2nc(-c3ccccc3)c(-c3cccs3)[nH]2)cc(OC)c1OC,-0.628
7,CN(C)CCCN1C(=O)CSC1c1ccccc1 (centres undefined),-0.244
8,COC(=O)C1CCN(C(=O)c2sc3nc(-c4ccccc4)cn3c2C)CC1,-0.507
9,CCOC(=O)CCCSc1nc(-c2ccc3c(c2)OCO3)cc(C(F)(F)F)c1C#N,-0.116
10,COc1ccc(CC(=O)NNC(=S)Nc2ccc(Br)cc2)cc1,0.363
11,O=C(CN1CCCN(S(=O)(=O)c2ccc(Br)cc2)CC1)Nc1ccc2cn[nH]c2c1,-0.0293
12,CN(C)/C=N/c1c(C#N)cnn1-c1ncnc2sc(-c3ccccc3)cc12,0.831
13,COc1ccc(NC(=O)CCC2CCCC2)cc1OC,0.0836
14,Cc1ccc(NC(=O)/C(C#N)=C/c2ccsc2)c(C)c1,-0.374
15,COC(=O)C1=C(C)N(c2cccc3ccccc23)C(=O)C1,-1.36
16,CCCCCCCC(=O)OC(CN1CCCCC1)CN1CCCC1=O (centres undefined),0.00336
17,COc1ccc(C(=O)Oc2cccc(Nc3ncnc4ccccc34)c2)cc1OC,-0.641
18,Cc1sc(NC(=O)C2C3CCC(O3)C2C(=O)O)nc1-c1ccc(CC(C)C)cc1 (centres undefined),-0.216
19,Cc1nn(C(C)(C)C)c(N)c1-c1ccccc1,0.195
20,COc1cc(/C=N/NC(=S)Nc2cccc(S(=O)(=O)N(C)C)c2)cc(OC)c1O,-0.472
21,CCC(CC)C(=O)c1c[nH]c(C(=O)NCC2CCCO2)c1 (centres undefined),0.307
22,COc1ccc(CCN2C(=O)CC(N3CCOCC3)C2=O)cc1 (centres undefined),0.443

row,SMILES,z-score
1,COc1ccc(OCc2nnc(SCC(=O)N3CCCc4ccccc43)n2-c2ccc(C)cc2)cc1,0.689
2,CCn1cc(/C=N/NS(=O)(=O)c2ccc(OC)cc2)c(C)n1,-0.0801
3,CCOc1ccc(C(O)C(CN2CCOCC2)c2ccccc2)cc1 (centres undefined),0.0283
4,NC(N)=NS(=O)(=O)c1ccc(NC(=S)NC(=O)/C=C/c2ccco2)cc1,0.302
5,CCOC(=O)Cn1c(=O)oc2cc(S(=O)(=O)NCc3cccs3)ccc21,0.18
6,Cc1ccc2nc(SCC(=O)NNC(=O)c3ccccc3)[nH]c2c1,-0.0561
7,Cc1ccccc1N1C(=O)C2C3C=CC(C2C1=O)N(C)C3=O (centres undefined),-0.12
8,CCCOc1ccc(C2C(C(=O)c3ccco3)=C(O)C(=O)N2CCN2CCOCC2)cc1OC (centres undefined),0.22
9,Cc1ccccc1/C(N)=N/OC(=O)c1cccs1,0.0732
10,O=C1C2CC=CCC2C(=O)N1c1ccc(NCCc2ccccc2F)c([N+](=O)[O-])c1 (centres undefined),0.212
11,O=C(O)C1C2C=CC3(CN(CC(O)COc4ccccc4)C(=O)C13)O2 (centres undefined),0.811
12,CCOc1ccccc1C(=O)NC(C)c1ccc2c(c1)OCO2 (centres undefined),-1.66
13,Cc1nc(=O)c(-c2ccccc2)c(C)n1-c1ccc(S(N)(=O)=O)cc1,-0.192
14,O=C(CN1C(=O)C2CC=CCC2C1=O)NCC1COc2ccccc2O1 (centres undefined),0.147
15,CN(C)S(=O)(=O)c1ccc2c(c1)nc(CCC(=O)Nc1ccc3c(c1)OCO3)n2C,-0.278
16,O=C(N/N=C/c1c(O)n(-c2ccccc2Cl)c(=O)c2ccccc12)C1COc2ccccc2O1 (centres undefined),-0.893
17,O=[N+]([O-])c1cccc(C(=Nc2ccc(Cl)cc2)NO)c1,-0.259
18,CCC(C)(C)n1nnnc1C(c1cc2cc(OC)ccc2[nH]c1=O)N1CCc2ccccc21 (centres undefined),-0.479
19,Cc1ccc(/C=N/NC(=O)CNC(=O)COc2ccccc2)o1,0.62
20,COc1ccc(S(=O)(=O)Nc2ccc(N3CCOCC3)cc2)cc1Br,0.132
21,CCOC(=O)/C(C#N)=C\C=C1C=CN(C)C=C1,-1.89
